GI50 and TGI data for six compounds are collected here from PubChem BioAssay (NCI).

Among the test systems are HOP-92 NSCLC; HT29 colon; SF-268 CNS; UACC-257 melanoma; SK-MEL-28 melanoma; SW-620 colon; OVCAR-5 ovarian; RXF 393 renal; EKVX NSCLC; HCT-15 colon; OVCAR-8 ovarian; RPMI-8226 leukemia; M14 melanoma; XF 498 CNS; A549 NSCLC; SK-MEL-5 melanoma; HOP-18 NSCLC; SK-MEL-2 melanoma; A498 renal; NCI-H226 lung; HCT-116 colon; SN12C renal; M19-MEL melanoma; 786-0 renal; MOLT-4 leukemia; K-562 leukemia; HOP-62 NSCLC; SNB-75 CNS; DMS 114 small cell lung; LXFL 529 NSCLC; HL-60(TB) leukemia; NCI-H522 lung; COLO 205 colon; DMS 273 small cell lung; U251 CNS; RXF-631 renal; SF-539 CNS; UO-31 renal; NCI-H23 lung; CCRF-CEM leukemia; HCC-2998 colon; SNB-78 CNS; OVCAR-4 ovarian; MALME-3M melanoma; CAKI-1 renal; SNB-19 CNS.

Common to all, as to assay: DTP human tumour cell line panel, 48 h

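Where inhibition never reached the appropriate level, the endpoint shown equals the highest concentration tested. Otherwise, values were interpolated linearly from a five-concentration, 48-hour dose response in 96-well plates. The concentration for 50% growth inhibition is given as GI50.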 For part of its entries the source gives two or more results. They are shown here; other results are not. An entry can have further records. For some of these results: A record mostly stands for its own series of concentrations, not given here; some values may only mark the edge of a range. For some of these results: Values given together are repeats (runs, samples, wells, individuals or studies). Records carry a tag for their origin. A, B and so on number the origins entry by entry.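 At the TGI there is no net growth.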

In the case of `COc1cc2nccc(Oc3ccc(NC(=O)C4(C(=O)Nc5ccc(F)cc5)CC4)cc3)c2cc1OC`, the 50% growth inhibitory concentration (GI50) in the assay with HOP-92 NSCLC was 362 nM [sample A, 1 test] and < 34.6 nM [sample B, mean of 2 tests].
As to `COc1ccc2c3c(c4cc(OC)c(OC)cc4c2c1)C[C@H]1CCCCN1C3`, the TGI is 0.00218 nM and 6.03 nM in the assay on HT29 colon; 0.5 nM [1 test] and 12.9 nM [mean of 5 tests] with SF-268 CNS; > 50 µM [1 test] and 12.8 nM [mean of 6 tests] in the assay with UACC-257 melanoma; 0.5 nM [1 test] and 8.85 nM [mean of 5 tests] in the assay with SK-MEL-28 melanoma; 0.00673 nM [1 test] and 53.1 nM [mean of 4 tests] in the assay on SW-620 colon; > 50 µM [1 test] and 28.6 nM [mean of 5 tests] in the assay on OVCAR-5 ovarian. In addition, the TGI in the assay on RXF 393 renal was 0.5 nM [1 test] and 6.02 nM [mean of 5 tests]. The GI50 in the assay with SF-268 CNS was 0.00231 nM [1 test] and 5 nM [mean of 5 tests]; with UACC-257 melanoma, > 50 µM [1 test] and 5.14 nM [mean of 6 tests]; in the assay on SK-MEL-28 melanoma, 0.00253 nM [1 test] and 5 nM [mean of 5 tests]; in the assay on OVCAR-5 ovarian, > 50 µM [1 test] and 5 nM [mean of 5 tests]; with RXF 393 renal, 0.00327 nM [1 test] and 5 nM [mean of 5 tests].
On to `Oc1ccc(/C=N/Nc2nnc(N/N=C/c3ccc(O)cc3O)c3ccccc23)c(O)c1`, for which the TGI in the assay with EKVX NSCLC is 558 nM and > 20 µM; with HCT-15 colon it was 672 nM and 21.3 µM; with SF-268 CNS it was 558 nM and 8 µM; in the assay on OVCAR-8 ovarian, 917 nM and > 33.7 µM.
On to `COC1=C(C)C(=O)C2=C(C1=O)C1C3CC4=C(C(=O)C(OC)=C(C)C4=O)C(CNC(=O)C(C)=O)N3C(C#N)C(C2)N1C` (configuration not stated), for which the TGI with RPMI-8226 leukemia is 0.632 nM, 10.5 nM, 82.4 nM; in the assay on M14 melanoma, 0.686 nM, 34 nM, 12.3 nM; with HT29 colon, 5.99 nM and 128 nM; in the assay with XF 498 CNS, 1.35 nM [mean of 2 tests] and 26 nM [mean of 3 tests]; in the assay on A549 NSCLC it was 57.1 nM, 4.61 µM, 1.61 µM; in the assay with EKVX NSCLC it was 9.39 nM, 608 nM, 46.2 nM. Besides, the TGI is 3.25 nM, 0.257 nM [1 test] and 5.13 nM [mean of 6 tests] in the assay on SK-MEL-5 melanoma; 0.996 nM and 7.63 µM with HOP-18 NSCLC; 0.158 nM, 3.02 nM, 4.93 nM in the assay with SK-MEL-2 melanoma; 18.8 nM [1 test] and 232 nM [mean of 4 tests] in the assay on A498 renal; 4.89 nM, 53.2 nM, < 23.9 nM in the assay with NCI-H226 lung; 5.09 nM, 1.09 µM [1 test] and 1.39 µM [mean of 3 tests] in the assay with HCT-116 colon. Also, the TGI in the assay on M19-MEL melanoma is 1.17 nM and 21.3 nM; with HCT-15 colon, 8.57 nM, < 33.5 nM [mean of 2 tests] and 355 nM [mean of 4 tests]; with SF-268 CNS, 7.8 nM and 299 nM; with UACC-257 melanoma it was 0.307 nM, 9.46 nM, < 13.3 nM; in the assay on 786-0 renal, 8.31 nM, 428 nM [1 test] and 1.42 µM [mean of 5 tests]; in the assay with MOLT-4 leukemia, 4.84, 2.37, 200, 135 nM. The TGI with K-562 leukemia was 0.0564 nM, 344 nM, 49.6 nM; in the assay with HOP-62 NSCLC, 4.37 nM, 122 nM, 108 nM; with SNB-75 CNS, 2.93 nM, 13.5 nM, 16.6 nM, < 14.2 nM; in the assay with DMS 114 small cell lung, 0.178 nM and 4.23 nM; in the assay with LXFL 529 NSCLC, 0.451 nM and 1.1 µM; in the assay with HL-60(TB) leukemia, 0.862 nM, 1.06 nM, 89.9 nM. The TGI with OVCAR-8 ovarian is 5.21 nM, 53.8 nM, 67.3 nM; with NCI-H522 lung it was 1.73 nM, 0.06 nM, 3.29 nM; with COLO 205 colon, 1.29 nM [1 test] and 0.85 nM [mean of 2 tests] and 8.78 nM [mean of 6 tests]; in the assay with DMS 273 small cell lung, 0.204 nM and 19.5 nM; in the assay with U251 CNS, 1.74 µM and 119 nM; with SK-MEL-28 melanoma it was 0.875 nM, 18 nM, < 25.5 nM. The TGI is 8.22 nM and 952 nM with RXF-631 renal; 2.36 nM, 2.24 nM, 35.1 nM, < 15.6 nM with SF-539 CNS; 5.8 nM, 47.4 nM [mean of 2 tests] and 113 nM [mean of 6 tests] with UO-31 renal; 0.36 nM and 18 nM with NCI-H23 lung; 5.19 nM, 1.06 µM, > 100 µM with CCRF-CEM leukemia; 1.85 nM, 22.2 nM, 20.1 nM in the assay with HCC-2998 colon. The TGI in the assay with SNB-78 CNS is 0.65 nM, 148 nM, < 21.6 nM; in the assay with OVCAR-4 ovarian it was 3.04 nM, 189 nM, 74.1 nM; in the assay on MALME-3M melanoma, 0.301 nM, 6.03 nM, < 17.1 nM. The GI50 is 0.205 nM [mean of 2 tests] and 11 nM [mean of 3 tests] with XF 498 CNS; 0.0806 nM [mean of 2 tests] and 3.39 nM [mean of 6 tests] in the assay with SN12C renal; 0.187 nM and 2.93 nM in the assay with LXFL 529 NSCLC; 1.55 nM, 14.8 nM [mean of 2 tests] and 30.7 nM [mean of 6 tests] in the assay with UO-31 renal.
Turning to `Cc1c(N)nc(C2CC(=O)N2CC(N)C(N)=O)nc1C(=O)NC(C(=O)NC(C)C(O)C(C)C(=O)NC(C(=O)NCCc1nc(-c2nc(C(=O)NCCNCC(C)O)cs2)cs1)C(C)O)C(OC1OC(CO)C(O)C(O)C1OC1OC(CO)C(O)C(OC(N)=O)C1O)c1cnc[nH]1` (configuration not stated), the TGI in the assay on CAKI-1 renal was 331 nM and > 100 µM.
Consider `Cc1cc(C2(c3cc(C)c(O)c4ncccc34)OC(=O)c3ccccc32)c2cccnc2c1O`, for which the TGI was 6.38 µM and > 100 µM with M14 melanoma; 265 nM and > 100 µM in the assay with EKVX NSCLC; 222 nM and 30.3 µM with NCI-H226 lung; 39 nM and > 100 µM in the assay on UO-31 renal; 628 nM and > 100 µM in the assay with NCI-H23 lung; 630 nM and > 100 µM with SNB-19 CNS.

A word on the GI50: it is the concentration at which growth is held to half of that of the control.
